Reference: PubChem BioAssay AID1768 (National Center for Advancing Translational Sciences (NCATS), 2009)
Several values for one entry are separate records, joined by “and”; a condition that tells them apart may be missing. Identical values can stand only once. Among all 270,000 compounds or so, about 620 (0.23%) were called active. Inconclusive results, whose numbers are uncertain, are shown with a selection of clear calls. The call rests on the fitted dose curve; in most records, active means well fitted inhibition curve with a large enough effect in the polarisation, with a control signal flat (not every such curve was filed as active); inconclusive means small, poorly fitted or top-dose-only effect, or effect the other way, or a change in a side signal; inactive means no such curve, though single readings can be large or run the other way; the % refers to the polarisation. Where the call is inconclusive, the potency comes from a doubtful curve fit. “Side channel” marks fits to a control or component signal instead of the main read-out.
Potency means the concentration at half of the fitted maximal effect; tags describe the fitted curve by direction and shape or compound fluorescence and quenching.
Wherever FP activity change, negative = inhibition is given: % of control where 0% means no effect.

The molecules below were run against Menin (Homo sapiens) (UniProt O00255) (assay: qHTS Assay for Inhibitors Targeting the Menin-MLL Interaction in MLL Related Leukemias: Competition With Texas Red Labeled MLL-derived Mutant Peptide). Conditions: fluorescence polarization; FP activity change, negative = inhibition: at 61.6 µM (top of the series).
Chain of UniProt O00255 (O00255 whole entry, looked up): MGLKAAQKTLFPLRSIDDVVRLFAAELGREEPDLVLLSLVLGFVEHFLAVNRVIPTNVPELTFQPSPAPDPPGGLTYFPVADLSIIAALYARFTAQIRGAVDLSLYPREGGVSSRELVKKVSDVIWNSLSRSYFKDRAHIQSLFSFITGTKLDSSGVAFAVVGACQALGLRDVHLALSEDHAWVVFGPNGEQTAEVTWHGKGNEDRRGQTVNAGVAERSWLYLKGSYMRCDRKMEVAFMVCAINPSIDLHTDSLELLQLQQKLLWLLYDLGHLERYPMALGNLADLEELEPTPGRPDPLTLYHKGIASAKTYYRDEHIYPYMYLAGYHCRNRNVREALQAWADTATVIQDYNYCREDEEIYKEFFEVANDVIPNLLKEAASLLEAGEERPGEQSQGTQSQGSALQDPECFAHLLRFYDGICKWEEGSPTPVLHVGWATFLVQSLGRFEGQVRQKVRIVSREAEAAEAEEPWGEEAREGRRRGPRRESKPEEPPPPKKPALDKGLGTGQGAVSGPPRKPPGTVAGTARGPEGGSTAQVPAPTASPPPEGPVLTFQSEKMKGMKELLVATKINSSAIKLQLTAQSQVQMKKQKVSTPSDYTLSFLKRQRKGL
With `Cc1nc(NC(=O)c2cccc(-c3cc4ccccc4oc3=O)c2)ccc1Br` the “FP activity change, negative = inhibition” value was inactive: -1.01%. For `CCOC(=O)Cc1cc(=O)n2[nH]c(-c3ccc(C)cc3)cc2n1`, the Potency was inconclusive: 25.1 µM [quencher, side channel, single point]. `CCc1nnc(NS(=O)(=O)c2ccc(NC(=O)CCC(=O)O)cc2)s1` was tested, and the Potency was inconclusive: 20 µM [inhibitor, single point]. For `COc1ccc(-n2c(SCC(=O)Nc3ccc(Cl)cc3)nc(O)c(Cc3ccccc3)c2=O)cc1`, the Potency was inconclusive: 10 µM [quencher, side channel, partial curve]. For `CCc1nc2ccccc2c(=O)n1NC(=O)c1c(O)c2ccccc2[nH]c1=O`, the Potency was inconclusive: 39.8 µM [inhibitor, single point]. With `CCCCC(CC)C(=O)Nc1ccc(Nc2ccccc2)cc1` (stereo not drawn) the Potency was inconclusive: 14.1 µM [quencher, side channel, partial curve]. For `CC(C)C1O/C(=N/C(=O)Nc2ccc(Cl)c(Cl)c2)NC1=O` (stereo not drawn), the Potency was inconclusive: 25.1 µM [quencher, side channel, partial curve]. `O=C(O)C[C@]1(C(=O)Nc2ccc(F)cc2)CC(/C=C/c2ccccc2)=NO1` was tested, and the Potency was inconclusive: 31.6 µM [quencher, side channel, single point]. With `Cc1ccc(-c2nc3c(c(=O)[nH]c(=O)n3Cc3ccccc3)n2C)o1` the Potency was inconclusive: 25.1 µM [quencher, side channel, partial curve]. In the case of `Cc1ccc(OCC(O)Cn2c(=N)n(Cc3ccccc3)c3ccccc32)cc1` (stereo not drawn), the “FP activity change, negative = inhibition” value is reported as inactive: -20.4%. For `CCc1ccccc1NC(=S)NC1CC2CCC(C1)N2Cc1ccco1` (stereo not drawn), the Potency was inconclusive: 39.8 µM [inhibitor, single point]. `CCCC[C@@H](CNC)NC[C@H](Cc1ccc(O)cc1)NCCc1ccc(OCC)cc1` was tested, and the “FP activity change, negative = inhibition” value was inactive: -19.1%. `O=C(Cn1cc(S(=O)(=O)N2CCN(c3ccccc3F)CC2)c2ccccc2c1=O)NCCCN1CCCCCC1` was tested, and the Potency was inconclusive: 35.5 µM [fluorescent, side channel, single point]. In the case of `c1ccc(CNc2cnccn2)cc1`, the Potency is reported as inconclusive: 31.6 µM [quencher, side channel, single point]. For `Cc1ccc(S(=O)(=O)N(Cc2n[nH]c(=S)n2-c2ccccc2)c2cccc(Cl)c2)cc1`, the Potency was inconclusive: 39.8 µM [quencher, side channel, single point]. With `Cc1ccc(C)c(CSc2nnc(-c3cccs3)n2Cc2ccco2)c1` the Potency was inconclusive: 8.91 µM [inhibitor, single point]. In the case of `O=C(Nc1ccc(O)c(C(=O)O)c1)c1ccc2c(c1)C(=O)N(CC1CCCO1)C2=O` (stereo not drawn), the Potency is reported as inconclusive: 25.1 µM [quencher, side channel, partial curve]. In the case of `COC(=O)C1CSc2[nH]c(=O)sc2C1c1ccc(OC)c(OC)c1` (stereo not drawn), the “FP activity change, negative = inhibition” value is reported as inactive: 7.13%. With `O=C(CCl)Nc1cc(S(=O)(=O)N2CCOCC2)ccc1N1CCOCC1` the Potency was inconclusive: 39.8 µM [inhibitor, single point]. For `COc1ccc(OC(C)C(=O)NCCC2=CCCCC2)cc1` (stereo not drawn), the Potency was inconclusive: 15.8 µM [fluorescent, side channel, single point]. For `Cc1ccc(S(=O)(=O)Nc2ccc3nc(-c4cccn4C)[nH]c3c2)cc1`, the Potency was inconclusive: 31.6 µM [quencher, side channel, single point]. With `COCCNC(=O)[C@@]1(C)C=C[C@@H](Cc2ccccc2)N1C(=O)c1ccccc1` the Potency was inconclusive: 15.8 µM [inhibitor, partial curve]. For `C=CCNCCCCOc1c(Cl)cc(C)cc1Br`, the Potency was inconclusive: 10 µM [inhibitor, partial curve]. With `[O-][n+]1onc2c1CCc1[nH]c(-c3ccccc3)nc1-2` the Potency was inconclusive: 2.82 µM [quencher, side channel, full curve]. For `COc1ccc(-c2nnc(SC(C)C(=O)Nc3nccs3)n2Cc2ccccc2)cc1OC` (stereo not drawn), the Potency was inconclusive: 11.2 µM [fluorescent, side channel, partial curve]. In the case of `CC(C)c1cc2c(c(O)c1O)[C@@]13CCCC(C)(C)C1CC2OC3=O` (stereo partly drawn), the Potency is reported as inconclusive: 12.6 µM [quencher, side channel, partial curve]. In the case of `O=C(NCCOC(=O)c1cccs1)c1cccnc1`, the “FP activity change, negative = inhibition” value is reported as inactive: 3.41%. `O=C1C[C@@H](O)[C@@H](O)[C@H]2[C@@H]3C(=O)N(C[C@@H]4CCCO4)C(=O)[C@@H]3CC[C@H]12` was tested, and the FP activity change, negative = inhibition was inactive: 0.833% [at 11.7 µM] and inactive: 2.84% [at 11.7 µM]. With `COc1ccc(-c2nc3c(c4c2C[C@H](c2ccccc2)OC4)CN(S(=O)(=O)c2ccc(C#N)cc2)CC3)c(C)c1` the FP activity change, negative = inhibition was inactive: -3.47% [at 11.7 µM]. With `Cc1ccc(CNc2nc(C)nc3sc4c(c23)CCC4)cc1` the Potency was inconclusive: 22.4 µM [inhibitor, single point]. For `CNc1sc(C(=O)c2ccc(F)cc2)c(N)c1-c1nc2ccccc2s1`, the Potency was inconclusive: 25.1 µM [quencher, side channel, partial curve]. For `O=C(NNC(=S)NC(=O)c1cccs1)c1ccc(NC(=O)c2ccccc2)cc1`, the Potency was inconclusive: 28.2 µM [quencher, side channel, partial curve]. With `COc1cc2c(cc1OC)-c1cc(Nc3ccc(C)cc3)nc(=O)n1CC2` the “FP activity change, negative = inhibition” value was inactive: -17.3%. In the case of `CCc1nnc(NS(=O)(=O)c2ccc(N=Cc3c(C)[nH]n(-c4ccc(C)cc4)c3=O)cc2)s1`, the Potency is reported as inconclusive: 10 µM [quencher, side channel, partial curve]. In the case of `CC(=O)N1CCC2(CCCN(c3cccc(-c4ccccc4)c3)C2)CC1`, the “FP activity change, negative = inhibition” value is reported as inactive: 36.7%. For `COc1cc2c(cc1NC(=O)CSc1nc3cc(Cl)ccc3s1)oc1ccccc12`, the Potency was inconclusive: 10 µM [inhibitor, partial curve]. With `COc1ccc(/C=N/NC(=O)c2ccn[nH]2)cc1COc1ccc(F)cc1` the Potency was inconclusive: 35.5 µM [quencher, side channel, single point]. For `CC1CCCN(CC(O)COCC2COc3ccccc3O2)C1` (stereo not drawn), the Potency was inconclusive: 0.562 µM [inhibitor, full curve, poor fit]. In the case of `Cc1[nH]c2ccccc2c1/C=N/NC(=O)Nc1ccccc1`, the Potency is reported as inconclusive: 14.1 µM [quencher, side channel, partial curve]. With `C#CCOCCOCCOCCNc1nc(N2CCN(C(=O)[C@H](Cc3cc4ccccc4[nH]3)n3cc([C@@H](N)C(C)CC)nn3)CC2)nc(N2CCN(C(=O)[C@H](Cc3cc4ccccc4[nH]3)n3cc([C@@H](N)Cc4ccc(O)cc4)nn3)CC2)n1` (stereo partly drawn) the Potency was inconclusive: 1.58 µM [fluorescent, side channel, full curve, poor fit]. `CCC(Oc1ccc(C)cc1)C(=O)Nc1ccc(S(=O)(=O)Nc2nccs2)cc1` (stereo not drawn) was tested, and the Potency was inconclusive: 15.8 µM [quencher, side channel, partial curve]. With `CC(CCc1ccccc1)NC(=O)CN(C)Cc1ccc(F)cc1` (stereo not drawn) the Potency was inconclusive: 12.6 µM [fluorescent, side channel, partial curve]. In the case of `Cc1ccc(-c2csc(=Nc3cccnc3)n2CCCN2CCCC2=O)cc1C`, the Potency is reported as inconclusive: 3.16 µM [fluorescent, side channel, partial curve]. With `COc1cccc(/C=N/NC(=O)CSc2nnc(C)n2-c2ccccc2)c1O` the Potency was inconclusive: 20 µM [inhibitor, partial curve]. For `Cc1ccc(CSC2=Nc3ccccc3C3=NC(CC(=O)NCc4ccco4)C(=O)N23)cc1` (stereo not drawn), the Potency was inconclusive: 39.8 µM [inhibitor, single point]. With `COc1ccc(Cl)cc1NC(=O)CN(c1ccccc1)S(=O)(=O)N(C)C` the Potency was inconclusive: 22.4 µM [quencher, side channel, single point]. With `CN(C)c1ccc(-c2cncnc2-n2ccnc2)cc1` the Potency was inconclusive: 3.98 µM [inhibitor, full curve]. For `CCSc1ncc(/C=N/Nc2ccc(Cl)cc2)n1C`, the Potency was inconclusive: 35.5 µM [quencher, side channel, single point]. `Cc1ccc(NC(=S)NNS(=O)(=O)c2ccc3ccccc3c2)cc1Cl` was tested, and the Potency was inconclusive: 31.6 µM [quencher, side channel, single point]. `O=C(CN1CCOCC1)Nc1nc2ccc(Cl)cc2s1` was tested, and the Potency was inconclusive: 12.6 µM [inhibitor, partial curve]. In the case of `COc1ccc(C2=Nn3c(nnc3-c3ccc(OC)c(OC)c3)SC2)cc1`, the “FP activity change, negative = inhibition” value is reported as inactive: -1.97%. For `O=C(CSC1=NS(=O)(=O)c2ccccc21)Nc1ccccc1`, the “FP activity change, negative = inhibition” value was inactive: -0.795%. For `CC(=O)N[C@@H](Cc1c[nH]c2ccccc12)C(=O)NC1CC1`, the Potency was inconclusive: 25.1 µM [inhibitor, partial curve]. `Cc1ccccc1S(=O)(=O)Nc1ncnc2scc(-c3ccccc3)c12` was tested, and the Potency was inconclusive: 25.1 µM [quencher, side channel, single point]. In the case of `Cc1cc(C)cc(NC(=O)Nc2ccc(NC(=O)c3ccccc3O)cc2)c1`, the Potency is reported as inconclusive: 1.78 µM [quencher, side channel, full curve, poor fit]. For `Cc1cc(Nc2cccc(F)c2)nc(-c2ccccc2O)n1`, the Potency was inconclusive: 12.6 µM [quencher, side channel, partial curve]. With `CC(=O)Nc1cccc(-c2csc(Nc3cc(C)ccn3)n2)c1` the Potency was inconclusive: 14.1 µM [quencher, side channel, partial curve]. `Cn1c(CO)c(-c2ccccc2)c2cc([N+](=O)[O-])ccc21` was tested, and the Potency was inconclusive: 25.1 µM [quencher, side channel, partial curve].
